Experimental findings from the supplement of paper PMC9446081 are described below.

Among all 39,000 compounds or so, about 220 (0.56%) showed activity. The list shows a part of the results.
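Further: static incubation at 37 °C against the wild-type strain, values averaged over two biological replicates.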

This test deals with Escherichia coli K-12 BW25113. Briefly: relative growth (OD600 normalised to plate interquartile mean) (fraction); higher = less growth inhibition, active = 0.2 or less. To be noted: 50 µM; LB; incubation time: overnight (16-24 h).
Regarding `C[C@H](CO)N1C[C@H](C)[C@@H](CN(C)C(=O)Nc2cccc3ccccc23)Oc2ccc(NC(=O)Nc3ccc(C(F)(F)F)cc3)cc2C1=O`, the relative growth was inactive: 1.02.
With `C[C@H](CO)N1C[C@H](C)[C@@H](CN(C)S(=O)(=O)c2cn(C)cn2)Oc2ccc(NC(=O)Cn3cnnn3)cc2CC1=O`, the relative growth is inactive: 1.
Consider `NCCC(=O)NC(Cc1c[nH]cn1)C(=O)O` (stereo not drawn), for which the relative growth is inactive: 0.933.
In the case of `CC(C)C#Cc1ccc2c(c1)O[C@@H](CN(C)C(=O)c1cccc(F)c1)[C@H](C)CN([C@@H](C)CO)S2(=O)=O` it was inactive: 0.921; in that of `COc1ccc(CN(C)C[C@H]2OCCCC[C@H](C)Oc3ccc(NS(=O)(=O)c4ccc(C)cc4)cc3C(=O)N([C@@H](C)CO)C[C@H]2C)cc1`, inactive: 0.999.
As to `C[C@@H]1CN([C@@H](C)CO)C(=O)c2cccc(NC(=O)C3CCOCC3)c2O[C@@H]1CN(C)C(=O)Nc1ccc2c(c1)OCO2`, the relative growth was inactive: 1.01.
Take `CN(C)C(=O)c1cc2c(c(-c3cccc(/C=C/c4ccccc4)c3)n1)[C@H](CCO)N([S@@](=O)C(C)(C)C)C2`: the relative growth was inactive: 0.992.
On to `C[C@@H]1CN([C@H](C)CO)C(=O)Cc2cc(NS(=O)(=O)c3cn(C)cn3)ccc2O[C@@H]1CN(C)C(=O)Nc1ccc2c(c1)OCO2`, for which the relative growth is inactive: 1.01.
For `O=C(C[C@H]1CC=CCC[C@H](Cc2ccc(F)cc2)C(=O)OC[C@H](Cc2ccccc2)NC1=O)NCCO`, the relative growth was inactive: 0.973.
Take `C[C@@H]1CN([C@@H](C)CO)C(=O)c2cc(NC(=O)CCC(F)(F)F)ccc2O[C@@H](C)CCCCO[C@@H]1CN(C)S(=O)(=O)c1ccc(F)cc1`: the relative growth was inactive: 1.01.
Turning to `C[C@@H]1CN([C@H](C)CO)C(=O)c2cccc(NS(=O)(=O)c3ccccc3)c2O[C@H]1CN(C)Cc1ccncc1`, the relative growth was inactive: 0.956.
As for `COc1ccc(S(=O)(=O)Nc2cccc3c2O[C@H](CN(C)Cc2ccc(Oc4ccccc4)cc2)[C@H](C)CN([C@H](C)CO)C3=O)cc1`, the relative growth is inactive: 0.974.
In the case of `Cc1ccc(S(=O)(=O)N(C)C[C@H]2OCCCC[C@H](C)Oc3ccc(NC(=O)CCC(F)(F)F)cc3C(=O)N([C@@H](C)CO)C[C@H]2C)cc1`, the relative growth was inactive: 1.02.
As for `C[C@@H]1CN([C@@H](C)CO)C(=O)c2cc(NC(=O)Nc3ccc(C(F)(F)F)cc3)ccc2O[C@@H]1CN(C)S(=O)(=O)c1ccc(Cl)cc1`, the relative growth was inactive: 1.04.
Regarding `CNC[C@H]1OCCCC[C@@H](C)Oc2ccc(NC(=O)Nc3cccc4ccccc34)cc2C(=O)N([C@@H](C)CO)C[C@@H]1C`, the relative growth is inactive: 0.985.
For `C[C@@H]1CN([C@H](C)CO)C(=O)c2cc(NC(=O)CCC(F)(F)F)ccc2O[C@@H](C)CCCCO[C@H]1CN(C)Cc1ccncc1` the value was inactive: 0.992; for `CC(C)c1c(C(=O)Nc2ccccc2)c(-c2ccccc2)c(-c2ccc(F)cc2)n1CCC(O)CC(O)CC(=O)[O-].[Ca+2]` (stereo not drawn), inactive: 0.966.
For `C[C@H](CO)N1C[C@H](C)[C@H](CN(C)Cc2ccc(C(F)(F)F)cc2)OCCCC[C@H](C)Oc2ccc(NS(=O)(=O)c3ccc(F)cc3)cc2C1=O` the value was inactive: 0.879; for `CC(=O)c1ccc(OCc2nnn(CC(=O)NS(=O)(=O)Cc3ccccc3)c2-c2ccccc2)cc1`, inactive: 0.983; for `CC/C(=C\C(=N\O)C(N)=O)[C@@H](C)[N+](=O)[O-]`, inactive: 0.979.
For `COC(CNC1=Nc2ncccc2OC1)OC` the value was inactive: 1; for `COc1ccc(NC(=O)Nc2ccc3c(c2)CC(=O)N([C@@H](C)CO)C[C@H](C)[C@@H](CN(C)CC2CCCCC2)O3)cc1`, inactive: 1; for `C[C@@H]1CN([C@@H](C)CO)C(=O)c2cc(NC(=O)Nc3cccc4ccccc34)ccc2O[C@@H]1CN(C)Cc1ccc(Oc2ccccc2)cc1`, inactive: 1.04.
With `O=C1CSC(=S)N1`, the relative growth is inactive: 0.986.
As to `C[C@H](CO)N1C[C@H](C)[C@H](CN(C)CC2CCCCC2)Oc2c(NC(=O)Nc3ccc(C(F)(F)F)cc3)cccc2C1=O`, the relative growth is inactive: 0.963.
For `Cc1noc(C)c1NC(=O)Nc1ccc2c(c1)C(=O)N([C@H](C)CO)C[C@H](C)[C@H](CN(C)Cc1ccncc1)OCCCC[C@@H](C)O2`, the relative growth was inactive: 1.01.
With `C[C@H]1CN([C@@H](C)CO)C(=O)c2cccc(NC(=O)Nc3ccccc3)c2O[C@H]1CN(C)Cc1ccc(C(F)(F)F)cc1`, the relative growth is inactive: 0.915.
For `O=C(C[C@H]1C[C@@H]2c3cc(NS(=O)(=O)c4ccc(F)cc4)ccc3O[C@@H]2[C@H](CO)O1)NCc1ccncc1` the value was inactive: 1.02; for `Cn1cnc(S(=O)(=O)N[C@@H]2C=C[C@@H](CC(=O)Nc3ccccc3)O[C@H]2CO)c1`, inactive: 0.886; for `C[C@@H]1CN([C@@H](C)CO)C(=O)c2cc(NC(=O)Nc3cccc4ccccc34)ccc2O[C@@H]1CN(C)C(=O)Nc1ccccc1`, inactive: 1.03.
Take `O=C(C[C@H](Nc1ccc(F)cc1)c1ccccc1)c1ccccc1`: the relative growth is inactive: 0.997.
Regarding `Cc1noc(C)c1NC(=O)Nc1cccc2c1O[C@H](CN(C)S(=O)(=O)c1ccccc1)[C@@H](C)CN([C@H](C)CO)C2=O`, the relative growth was inactive: 1.03.
In the case of `O=C1c2ccccc2[C@@]2(Cc3ccccc3N(CC(F)(F)F)C2=O)[C@H](c2ccc(CO)cc2)N1Cc1ccccc1Cl` it was inactive: 1.03; in that of `C[C@@H]1CN([C@H](C)CO)C(=O)c2cc(NC(=O)CCC(F)(F)F)ccc2O[C@@H](C)CCCCO[C@@H]1CN(C)Cc1ccc(Cl)c(Cl)c1`, inactive: 0.968; in that of `C[C@@H]1CCCCO[C@@H](CN(C)C(=O)Nc2cccc3ccccc23)[C@@H](C)CN([C@H](C)CO)C(=O)c2cc(NC(=O)C3CCCCC3)ccc2O1`, inactive: 0.98.
Consider `COc1ccc(NC(=O)Nc2ccc3c(c2)C(=O)N([C@H](C)CO)C[C@H](C)[C@H](CN(C)C(=O)CCC(F)(F)F)OCCCC[C@H](C)O3)cc1`, for which the relative growth is inactive: 1.
As for `COc1ccc(S(=O)(=O)N2C[C@@H](O)COC[C@H]3O[C@@H](CC(=O)N[C@H]4CCN(Cc5ccccc5)C4)CC[C@@H]32)cc1`, the relative growth was inactive: 0.965.
With `COCC#Cc1ccc2c(c1)O[C@@H](CN(C)C(=O)Nc1ccc(OC)cc1)[C@@H](C)CN([C@H](C)CO)S2(=O)=O`, the relative growth was inactive: 1.01.
For the molecule `C[C@@H]1CN([C@H](C)CO)S(=O)(=O)c2ccc(-c3cncnc3)cc2O[C@H]1CN(C)C(=O)Cc1ccncc1`, the relative growth is inactive: 1.04.
In the case of `C[C@@H]1CN([C@@H](C)CO)C(=O)c2c(c3ccccc3n2C)-c2ccccc2CO[C@H]1CN(C)CC1CCCCC1` it was inactive: 0.994; in that of `C[C@H]1CN([C@@H](C)CO)C(=O)CCCn2cc(nn2)CO[C@@H]1CN(C)S(=O)(=O)c1cn(C)cn1`, inactive: 1.02; in that of `C[C@H](CO)N1C[C@H](C)[C@@H](CN(C)Cc2ccc(C(=O)O)cc2)Oc2ccc(NS(C)(=O)=O)cc2C1=O`, inactive: 0.976.
For `C[C@@H]1CN([C@H](C)CO)C(=O)c2cccc(NS(C)(=O)=O)c2O[C@H]1CN(C)S(=O)(=O)c1ccc(Cl)cc1` the value was inactive: 0.994.
As for `C[C@H](CO)N1C[C@H](C)[C@H](CN(C)S(=O)(=O)c2cn(C)cn2)Oc2ccc(NC(=O)CCCN(C)C)cc2C1=O`, the relative growth is inactive: 0.991.
Regarding `Cn1cnc(S(=O)(=O)N[C@H]2C=C[C@@H](CC(=O)Nc3ccccc3)O[C@@H]2CO)c1`, the relative growth was inactive: 0.994.
In the case of `C[C@@H]1CN([C@@H](C)CO)C(=O)c2cccc(NS(=O)(=O)c3cccs3)c2O[C@@H]1CN(C)S(=O)(=O)c1ccccc1` it was inactive: 1.02.
In the case of `C[C@@H]1CN([C@@H](C)CO)C(=O)c2cc(NC(=O)c3ccccc3)ccc2O[C@@H](C)CCCCO[C@@H]1CN(C)C(=O)c1ccccc1` it was inactive: 1.01; in that of `CC(C)(C)OC(=O)CC[C@]1(C(=O)NCc2ccccc2)N=C(c2ccc(OCCCO)cc2)O[C@H]1c1ccccc1`, inactive: 0.993; in that of `C[C@H](CO)N1C[C@H](C)[C@H](CN(C)Cc2ccc(Oc3ccccc3)cc2)Oc2ccc(NC(=O)c3ccncc3)cc2C1=O`, inactive: 1.01.
As to `CC(C)NC(=O)Nc1ccc2c(c1)CC(=O)N([C@H](C)CO)C[C@H](C)[C@H](CN(C)Cc1ccc(C(=O)O)cc1)O2`, the relative growth is inactive: 1.02.
On to `C[C@@H]1CCCCO[C@H](CN(C)C(=O)Cc2ccccc2)[C@@H](C)CN([C@H](C)CO)C(=O)c2cc(NC(=O)Nc3cccc4ccccc34)ccc2O1`, for which the relative growth is inactive: 1.05.
Turning to `C[C@H](CO)N1C[C@H](C)[C@H](CN(C)C(=O)Cc2ccccc2)OCCCC[C@H](C)Oc2ccc(NC(=O)c3ccccc3)cc2C1=O`, the relative growth is inactive: 0.987.
Regarding `Cc1ccc(S(=O)(=O)Nc2cccc3c2O[C@H](CN(C)Cc2ccc(-c4ccccc4)cc2)[C@@H](C)CN([C@@H](C)CO)C3=O)cc1`, the relative growth is inactive: 1.03.
With `O=C(Nc1ccc(C(=O)Nc2ccc(C(=O)Nc3ccc(S(=O)(=O)O)c4cc(S(=O)(=O)O)cc(S(=O)(=O)O)c34)cc2)cc1)Nc1ccc(C(=O)Nc2ccc(C(=O)Nc3ccc(S(=O)(=O)O)c4cc(S(=O)(=O)O)cc(S(=O)(=O)O)c34)cc2)cc1`, the relative growth was inactive: 0.904.
Regarding `O=C(NCC[C@H]1CC[C@H](NS(=O)(=O)c2cccc(F)c2)[C@@H](CO)O1)C1CC1`, the relative growth is inactive: 0.965.
Consider `O=C(C[C@H]1CC[C@@H](NC(=O)CN2CCOCC2)[C@@H](CO)O1)NCCc1ccncc1`, for which the relative growth is inactive: 1.
Regarding `C[C@@H]1CN([C@@H](C)CO)C(=O)c2cc(C#CC3(O)CCCC3)cnc2O[C@@H]1CN(C)S(=O)(=O)c1ccc(F)cc1`, the relative growth was inactive: 0.999.
As to `COc1ccc(S(=O)(=O)Nc2ccc3c(c2)C(=O)N([C@H](C)CO)C[C@H](C)[C@@H](CN(C)C(=O)NC2CCCCC2)OCCCC[C@H](C)O3)cc1`, the relative growth was inactive: 1.02.
